From patent publication US20260207767A1 (ANAVEON, published 2026)

T1: trimeric IL-2 receptor (CD25/CD122/CD132) on HEK-Blue IL-2 reporter cells (UniProt P01589 22-272; P14784 27-551; P31785 23-369, limits assumed)
T1 sequence (looked up) 1: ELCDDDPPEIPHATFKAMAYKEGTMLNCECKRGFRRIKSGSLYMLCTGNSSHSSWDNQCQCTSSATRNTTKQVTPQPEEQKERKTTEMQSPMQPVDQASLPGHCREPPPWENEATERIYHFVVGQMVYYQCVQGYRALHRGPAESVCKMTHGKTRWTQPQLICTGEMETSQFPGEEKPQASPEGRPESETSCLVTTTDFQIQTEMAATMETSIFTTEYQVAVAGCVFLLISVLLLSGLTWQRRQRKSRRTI
T1 sequence (looked up) 2: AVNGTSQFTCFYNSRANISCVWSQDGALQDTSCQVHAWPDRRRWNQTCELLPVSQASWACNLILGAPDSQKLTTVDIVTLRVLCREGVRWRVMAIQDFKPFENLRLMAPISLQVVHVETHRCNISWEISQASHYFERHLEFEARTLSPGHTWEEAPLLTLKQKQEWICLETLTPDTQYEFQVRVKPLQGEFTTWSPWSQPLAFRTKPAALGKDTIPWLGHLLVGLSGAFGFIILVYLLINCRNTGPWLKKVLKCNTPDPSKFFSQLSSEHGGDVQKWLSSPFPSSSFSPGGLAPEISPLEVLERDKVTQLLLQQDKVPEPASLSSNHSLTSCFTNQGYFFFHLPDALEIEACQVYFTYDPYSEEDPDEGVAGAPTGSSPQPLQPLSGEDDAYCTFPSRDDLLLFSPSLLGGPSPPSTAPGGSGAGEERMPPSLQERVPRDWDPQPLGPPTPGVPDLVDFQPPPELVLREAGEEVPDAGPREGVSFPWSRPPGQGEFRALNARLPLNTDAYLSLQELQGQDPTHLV
T1 sequence (looked up) 3: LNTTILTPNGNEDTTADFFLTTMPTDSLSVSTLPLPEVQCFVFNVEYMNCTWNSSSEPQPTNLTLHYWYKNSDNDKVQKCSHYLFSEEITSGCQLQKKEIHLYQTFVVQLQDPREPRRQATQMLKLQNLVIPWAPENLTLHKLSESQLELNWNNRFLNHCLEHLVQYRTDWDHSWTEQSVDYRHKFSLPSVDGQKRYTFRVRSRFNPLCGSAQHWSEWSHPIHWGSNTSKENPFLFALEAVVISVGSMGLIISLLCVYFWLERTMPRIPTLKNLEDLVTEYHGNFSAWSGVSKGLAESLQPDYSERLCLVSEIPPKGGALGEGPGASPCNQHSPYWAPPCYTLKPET

T2: His-tagged recombinant CD25 (UniProt P01589 22-213, limits assumed)
T2 construct: also called IL-2R alpha chain
T2 sequence (looked up): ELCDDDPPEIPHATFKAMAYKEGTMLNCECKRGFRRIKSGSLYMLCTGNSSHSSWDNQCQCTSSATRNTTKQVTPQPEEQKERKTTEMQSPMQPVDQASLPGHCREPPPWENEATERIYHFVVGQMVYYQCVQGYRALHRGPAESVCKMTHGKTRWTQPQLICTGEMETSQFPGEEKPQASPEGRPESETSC

T3: high affinity trimeric IL-2R on CD4+CD25+FoxP3+ Treg cells of murine splenocytes (mouse, UniProt P01590 22-268; P16297 27-539; P34902 23-369)
T3 sequence (looked up) 1: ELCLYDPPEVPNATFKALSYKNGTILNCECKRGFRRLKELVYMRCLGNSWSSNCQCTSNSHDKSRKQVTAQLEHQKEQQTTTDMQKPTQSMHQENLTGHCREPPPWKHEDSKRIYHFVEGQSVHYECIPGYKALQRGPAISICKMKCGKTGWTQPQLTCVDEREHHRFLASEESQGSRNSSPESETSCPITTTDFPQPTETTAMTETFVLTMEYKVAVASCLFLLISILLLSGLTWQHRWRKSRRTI
T3 sequence (looked up) 2: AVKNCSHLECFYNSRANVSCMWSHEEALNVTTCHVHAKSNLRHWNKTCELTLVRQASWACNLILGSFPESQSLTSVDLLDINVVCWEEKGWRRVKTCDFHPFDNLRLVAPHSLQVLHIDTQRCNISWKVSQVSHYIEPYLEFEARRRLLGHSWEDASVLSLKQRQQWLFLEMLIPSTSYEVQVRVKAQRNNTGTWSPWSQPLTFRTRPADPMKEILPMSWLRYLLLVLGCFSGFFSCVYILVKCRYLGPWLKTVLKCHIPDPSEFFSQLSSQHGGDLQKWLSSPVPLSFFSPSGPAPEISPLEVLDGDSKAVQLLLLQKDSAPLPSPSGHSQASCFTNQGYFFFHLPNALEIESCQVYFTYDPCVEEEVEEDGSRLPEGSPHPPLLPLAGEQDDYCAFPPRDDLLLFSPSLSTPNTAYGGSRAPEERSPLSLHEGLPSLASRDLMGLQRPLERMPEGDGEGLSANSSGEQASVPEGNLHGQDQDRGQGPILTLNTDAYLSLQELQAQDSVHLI
T3 sequence (looked up) 3: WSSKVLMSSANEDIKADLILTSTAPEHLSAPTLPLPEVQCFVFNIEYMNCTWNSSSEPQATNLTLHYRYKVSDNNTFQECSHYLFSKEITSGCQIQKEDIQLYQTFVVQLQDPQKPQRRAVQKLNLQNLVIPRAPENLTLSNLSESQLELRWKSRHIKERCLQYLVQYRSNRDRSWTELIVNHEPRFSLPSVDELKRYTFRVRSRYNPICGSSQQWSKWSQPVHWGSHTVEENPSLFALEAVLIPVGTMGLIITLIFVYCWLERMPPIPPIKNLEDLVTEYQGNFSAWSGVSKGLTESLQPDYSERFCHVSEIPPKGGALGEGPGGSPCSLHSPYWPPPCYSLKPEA


Legend:
[1] = biological target: T1, trimeric IL-2 receptor …; experiment: cell-based or functional assay
[2] = biological target: T2, His-tagged recombinant CD25; experiment: SPR, CD25 captured
[3] = biological target: T3, high affinity trimeric IL-2R on …; experiment: cell-based or functional assay
[4] = biological target: IL-2R on NK cells and CD8+ T cells of murine splenocytes (C57BL/6) (mouse); experiment: cell-based or functional assay
[5] = biological target: anti-IL-2 antibody clone 5344; experiment: ELISA on clone 5344

EC50, HEK Blue IL-2 reporter assay (SEAP) [1]	binding result [2]	EC50 Treg cells (nM), pSTAT5 [3]	EC50 CD8 cells (nM), pSTAT5 [4]	EC50 NK cells (nM), pSTAT5 [4]	EC50 [5]	Kd [2]	Binder
4.35 pM	no binding (tested: 500 nM)	2.6 nM	32.2 nM	34.3 nM			VBE401 (other) heavy: EVQLVQSGAEVKKPGESLKISCKGSGYAFTNYLIEWVRQMPGKGLEWMGVINPGSGGTNYNEKFKGQVTISADKSISTAYLQWSSLKASDTAMYYCARWRGEGGGFHLRPRDLISNINVIVLELKGSETTFMCEYADETATIVEFLNRWITFSQSIISTLTPTSSSTKKTQLQLEHLLLDLQMILNGINNYKNPKLTRMLTFKFYMPKKATELKHLQCLEEELKPLEEVLNLAQSKGGGGYYAYFDVWGQGTTVTVSSASTKGPSVFPLAPSSKSTSGGTAALGCLVKDYFPEPVTVSWNSGALTSGVHTFPAVLQSSGLYSLSSVVTVPSSSLGTQTYICNVNHKPSNTKVDKRV[not shown - human IgG1 Fc with changes] light: AIRLTQSPSSFSASTGDRVTITCKASQSVDYQGDSYMNWYQQKPGKAPKLLIYAASNLESGVPSRFSGSGSGTDFTLTISSLQSEDFATYYCQQSNEDPYTFGGGTKVEIKRTVAAPSVFIFPPSDEQLKSGTASVVCLLNNFYPREAKVQWKVDNALQSGNSQESVTEQDSKDSTYSLSSTLTLSKADYEKHKVYACEVTHQGLSSPVTKSFNRGEC
8.35 pM	no binding (tested: 500 nM)	3.8 nM	12.5 nM	5.3 nM			LIZ707 (other, also called L1707) heavy: EVQLVQSGAEVKKPGESLKISCKGSGYAFTNYLIEWVRQMPGKGLEWMGVINPGGGFYMPKKATELKHLQCLEEELKPLEEVLNLAQSKNFHLRPRDLISNINVIVLELKGSETTFMCEYADETATIVEFLNRWITFCQSIISTLTPTSSSTKKTQLQLEHLLLDLQMILNGINNYKNPKLTRMLTFKGGGSGGTNYNEKFKGQVTISADKSISTAYLQWSSLKASDTAMYYCARWRGEGYYAYFDVWGQGTTVTVSSASTKGPSVFPLAPSSKSTSGGTAALGCLVKDYFPEPVTVSWNSGALTSGVHTFPAVLQSSGLYSLSSVVTVPSSSLGTQTYICNVNHKPSNTKVDKRV[not shown - human IgG1 Fc with changes] light: AIRLTQSPSSFSASTGDRVTITCKASQSVDYQGDSYMNWYQQKPGKAPKLLIYAASNLESGVPSRFSGSGSGTDFTLTISSLQSEDFATYYCQQSNEDPYTFGGGTKVEIKRTVAAPSVFIFPPSDEQLKSGTASVVCLLNNFYPREAKVQWKVDNALQSGNSQESVTEQDSKDSTYSLSSTLTLSKADYEKHKVYACEVTHQGLSSPVTKSFNRGEC
7.35 pM		< 0.016 nM	32 nM	1.7 nM	240 pM	120 pM	LPT269 (other, Antibody C IgG with IL-2CP in CDR-L1) heavy: EVQLVQSGAEVKKPGESLKISCKGSGYSFTNFYIHWVRQAPGQRLEWMGSIYPNYGDTAYNQKFKDRFVFSLDTSVSTAYLQISSLKAEDTAVYYCARGYSYAMDYWGQGTTVTVSSASTKGPSVFPLAPSSKSTSGGTAALGCLVKDYFPEPVTVSWNSGALTSGVHTFPAVLQSSGLYSLSSVVTVPSSSLGTQTYICNVNHKPSNTKVDKRV[not shown - human IgG1 Fc with changes] light: DIQMTQSPSSVSASVGDRVTITCSASQGISGNFHLRPRDLISNINVIVLELKGSETTFMCEYADETATIVEFLNRWITFSQSIISTLTPTSSSTKKTQLQLEHLLLDLQMILNGINNYKNPKLTRMLTFKFYMPKKATELKHLQCLEEELKPLEEVLNLAQSKGDLNWYQQKPGKAPKLLIYHTSSLHSGVPSRFSGSGSGTDFTLTISSLQPEDFATYYCQYYSKDLLTFGGGTKLEIKRTVAAPSVFIFPPSDEQLKSGTASVVCLLNNFYPREAKVQWKVDNALQSGNSQESVTEQDSKDSTYSLSSTLTLSKADYEKHKVYACEVTHQGLSSPVTKSFNRGEC
